# Reference: the RNAGym collection of RNA variant scans (doi:10.7554/elife.90254)
# The source gives no read counts; variants with many changes may rest on few reads.
# B1: OR4K15 (parent)
# chain: GUUAACGGUCAUAGGCCAUGGAAACUAGGAGCACCAUUUCGCUGCCAGUGAAGAAAUGAACAAAGAAAAUCUGGGCCAGGCAGGCAUCAAAAGAAAUAGUCUUGCGCUCAACCAGAAAGUCUGUAAUCAUUUUAAGGGUA
# Variants of: B1
# Test: self-cleavage, relative activity (ratio to wild type); higher = more cleavage; in vitro, sequencing; the parent is a self-cleaving ribozyme
row,Variant,self-cleavage
1,C35A A36G U100C C113A,0.03
2,A33G U72C U122A,0.12
3,C35A U108C A140G,0.02
4,A33G U37G A54G U72C,0.29
5,C34U A63G U132C U139C,2.5
6,A33G U43C U49C U108C A129G,0.01
7,A36G A56G G73U,0.19
8,A33U U43A A54G A90G,0.95
9,A36G A62G A68U,1.4
10,A33U C34A U37C U43A U70C,0.78
11,C34U U38C U130C,0.95
12,A30U A68U U132C,0.95
13,G31A G80U A89G U127G,0.22
14,A33G A54G A134U,1.88
15,A36G A52G A60G U122C,1.19
16,A36G A67G U132C,1.71
17,A33G U39C U103C,0.58
18,A33U A114G A117G U122C,0.22
19,A36G A63G A94G A110G,0.19
20,C34U A118G A135G,0.97
21,A33U A51U A56G A86G A96G U108C,0.01
22,A33U A89C U120C,0.66
23,A33G A47G A69U,0.17
24,A36G A55G A68G U97C U103C,0.17

row,Variant,self-cleavage
1,A30U G65U A94U U103C U108C U139C,0.01
2,A33U U43A A125G,0.6
3,A36G A55G A69C A90G,1.29
4,A33C U49A A62G A92G,1.01
5,G31C A68G U70C A96G,0.21
6,G31A A86G U131C,1.04
7,A36C U39A U97A,1.79
8,C35U U57G A68G A94G A116G,0.27
9,C32U A68G A98G U130C,0.37
10,A30U U39A A64G A111G A116G,0.01
11,C34A A114G A118G,0.28
12,A30U G50A U70C A89U A96G,0.97
13,A33G A126U U127C,0.14
14,A33C U37C A59G,1.02
15,A30U A90G A92G,1.25
16,A33G U38C U49C A69G,0.51
17,C32U A47G A96G,1.1
18,A33G U43C A118G,0.13
19,A33G A118G A125G,0.01
20,A33G A52G A55G A66G C107U A111G U122C,0
21,C34U A68G U103G A114C,0.02
22,A33G A67C A126G,1.64
23,A33G A78U G84A,0.18
24,A36C A59G A89G U108C A118U,0.01

row,Variant,self-cleavage
1,A33U A55G G136A,1.62
2,A33G A60C A67G A118U,0.21
3,A33U A95G U108C,0.02
4,C32U U38C A95G G106A U127A U139C,0.01
5,A33G A64G A90G U122C U130C,0.16
6,A33U U87C A90G U131C,0.14
7,A36G A47G A114U,0
8,G31A A56G A78G U131G U132G U139C,0.02
9,C32U U57C U122A,1.46
10,A30U U39C U49C A60G U132C,1.01
11,A33C C45U A95U A96G U132C,0.44
12,A33G U39C A82U C85G U127C,0.09
13,C34U A54G U57C U100C,1.17
14,A33G U39C A56G A114G,0.14
15,A33G A67U A89C U120C,0.14
16,A33G A98G U100A U108C A110G,0.01
17,A33U A52G A59G A89C A90G,0.96
18,A36G A60G A111G,0.02
19,A33G A69G A82G A111U,0.02
20,A33U A68G U139C,1.39
21,A30U C32U C121U U122C,1.44
22,A33G A62U U97C,1.13
23,A33C A51U A54U,1.44
24,C34U U72A U87A A110G,0

row,Variant,self-cleavage
1,A30U U37C A51G,1.85
2,A33G A36G U72C A117G,0.26
3,A36G A47U A96G,0.66
4,A33G A63U A117G,0.43
5,A33G A51G A69G A78G,0.29
6,A33G A52G U131C,0.64
7,A33U A56G A117G,1.42
8,A33G A56G A95G,1.64
9,A30U U39A A59G,1.35
10,A30U U49C A56G U103C,0.69
11,C34A A60U A126G,1.52
12,C32U U38C A90U A126G,1.57
13,C35U U38C A59G A86C U120C,0.45
14,A33G A89G A91G A92G,0.47
15,C35A A59G A140G,1.57
16,A30U U72A A86U A110G,0.03
17,A30U U38C A67G U120C,0.84
18,A33G U38G A98G,0.14
19,A33G U87A A92G,0.76
20,A33G U37A U108A,0.03
21,A36G A54G A67G A114G,0.89
22,A33G A91G A98G,0.27
23,A36G A52G A94G U139A,1.59
24,C32U A94G A118G,0.99

row,Variant,self-cleavage
1,A33G U100C A126G A129G,1.45
2,C32U G41A A78C A98G,0.11
3,A30U A59G A95G,1.25
4,A33C G115A A118G,0.07
5,C32A U49C A51U A69G,1.4
6,A33G A64G U108C A116G U120A,0
7,A33G A59G A90G U102C U130C,1.73
8,A33G U49A A51G,0.4
9,A33G A64G U87C A114G A117G,0.22
10,A33G A69G A94U U130C,0.76
11,A33U A51G U108C U131C,0.01
12,C35U U39A A91G A116G U131C,0.16
13,A33G A36G A52G U102C G104A C113A A126G,0.01
14,A36G A54G A92U,1.25
15,A33U A51U A134G,2.48
16,A33U A52G A95G,2.2
17,A33G A54G A68G,1.05
18,C32U A63U A68G,0.53
19,A36G A91G A95G,1.79
20,A33G A55G A66U A92G U97A,0.44
21,C32U U38C U108C A116G A135U,0
22,G31A A36G U57G U108C,0.02
23,A33G G74A A98G U108C A116G A126G,0
24,A33G A56G A62G A68G A92G A117G U122A A125U,0.39

row,Variant,self-cleavage
1,C32U A110G A129G,0.09
2,A33G A117G U120A,1.58
3,C35U A82U A89G A92U A110G,0.01
4,A33G A66U A67G,0.39
5,A33G G44U U131C,0.39
6,C32U G80A A117G,0.33
7,A30U A67G A117G,0.5
8,C32U A86G U139C,2.27
9,A33C A56G A59G A98C,1.13
10,A33G U38C A52G A134G,0.97
11,A33G A64G U124C,0.84
12,A30U U57A A62G A116U A129G U130C U133C,0.24
13,A33G A54G A114G,0.01
14,A36G A51G A63G,2.08
15,C35U A62U U127A,1.52
16,C34U A47G A60G A86U,0.81
17,G31A A36G A59U A135G,1.27
18,A33U U43C U131C,1.14
19,A36C U37A U49C C61U A140U,2.3
20,A33G A86U A89G,0.53
21,G31A A66U A114G,0.49
22,C32U A33G A54G A90G,0.99
23,A33G U49C A118G,0.26
24,A33G A78U A89G A135G,0.12

row,Variant,self-cleavage
1,A33G A54G A56G A67G U108A,0.03
2,A33U A56G A95G A96G U103A C109U,0.02
3,A33G U37C A92G U130C,0.44
4,C32U A63G C112A,0.05
5,A33U U39C A60G,1.4
6,A30U U87C U122A,1.08
7,A33G A98G U120C A129G,0.03
8,A33G U72A A82G,0.16
9,A33U U39C U49C,1.39
10,C35A A54G A55G A62U G115A,0.09
11,A36C C40A A47G U127C,0.95
12,A33C U38C A59G A110G,0.16
13,A33G A60G A114G U130C,0.11
14,C32U A69G U124C,0.85
15,C32U A110G A114G,0.07
16,C34U U49C U72A A78U A114G,0.05
17,A33U U49A A56G,1.73
18,A33G U70C A90G A110G U122C,0.01
19,A33G A66G A82U A86U A116U,0.03
20,C34U A54G A92G A117G U130C,1.04
21,A36G A69G C81A C85U U100C U122C,0.53
22,A33G A54G A69G A82G A90G,0.28
23,A30U U43C U87C U120C,0.55
